According to PubChem BioAssay AID1508623 (National Center for Advancing Translational Sciences (NCATS), 2021):
Out of some 48,000 compounds screened, about 450 (0.94%) were called active. Roughly 19% stayed inconclusive and do not appear here. Calls come from the whole dose curve; as a rule, active = well fitted inhibition curve with a large enough effect; inconclusive = small, poorly fitted or top-dose-only effect; inactive = no such curve, though single readings can be large or run the other way. Some of the results follow.

Experiment: Primary qHTS for Identification of Small Molecule Inhibitors of Huntingtin Promoter Activity; note: nearly all actives have a fitted effect of over 50% in size
Conditions: HEK293 HTT promoter firefly luciferase reporter (activity 0% = vehicle and -100% = no light), 24 h; series mostly up to 57.5 µM; activity change, negative = inhibition: at the top concentration
In short: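 Firefly luciferase signal from promoter-reporter HEK293 cells was scaled between vehicle (0%) and zero RLU (-100%). Compounds were tested at final concentrations of up to 57.5 uM over 24 h at 37 degrees C. PTC124 at 50 uM final served as control inhibitor.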
Potency is the fitted concentration of half-maximal effect.

Activity change, negative = inhibition, inactive:
Cc1cccc(NC(=O)CSc2ccc(-c3ccccn3)nn2)c1 -22.4%
CCCCN(CC)CCCNC(=O)c1cc2c(=O)[nH]c3ccccc3c2n1C -6.06%
COc1ccc(NC(=O)CCCSc2nc(-c3ccco3)cc(C(F)(F)F)n2)cc1OC -11.6% [at 11.5 µM]
CCc1ccc(-c2cn3c(n2)sc2cc(C(=O)NC4CCCCC4)ccc23)cc1 -7.44%
COc1cccc(-c2nc(S(=O)(=O)c3ccc(Cl)cc3)c(NCc3ccccc3)o2)c1 -21.9%
COc1cccc(C(=O)Nc2cccc(OCc3cc(=O)n4c5c(sc4n3)CCCC5)c2)c1 7.36%
CC(=O)Nc1ccc(NS(=O)(=O)c2c(C(=O)N3CCC(C)CC3)c(C)n(C)c2C)cc1 -18.6%
COc1ccc2oc(=O)c(C(=O)NCCc3c(C)[nH]c4ccc(F)cc34)cc2c1 -2.25%
COCCNc1oc(-c2ccccc2)nc1S(=O)(=O)c1ccc(Br)cc1 -22.6%
CC(C)CCNC(=O)c1cc2cc(S(=O)(=O)N3CCCCC3)ccc2n1C -26.2%
O=C(NCCc1ccccc1Cl)c1sc2ncccc2c1-n1cccc1 0%
O=C(NC1CCN(CCc2c[nH]c3ccccc23)CC1)c1ccccc1 -8.7%
CCC(=O)N1c2ccccc2CC1C(=O)NCCc1ccccc1 (stereo not given) -24.6%
CCC(=O)Nc1ccccc1-c1nc2ccccc2n(CC(=O)c2ccc(C)cc2)c1=O -1.74%
CSc1ncc(Cl)c(C(=O)Nc2c(C(=O)Nc3cccc(Cl)c3)oc3ccccc23)n1 -2.68%
COc1ccc(CNC(=O)CCCN2C(=O)COc3ccc(C)cc32)cc1 13%
COc1cccc(Cn2nnc3c(=O)[nH]c(C4CCN(C(=O)c5ccccc5Cl)CC4)nc32)c1 -21.4%
CC1=C(C(N)=O)C(c2ccccc2Br)n2ncnc2N1 (stereo not given) -5.71%
CC(C)(C)C(=O)Oc1ccc2c(c1)nc(NC(=O)c1cccc([N+](=O)[O-])c1)n2CCCO -3.09%
O=C(NCc1ccccc1Br)c1cnc2sc(N3CCCCCC3)nn2c1=O 11%
COc1ccc(-n2nc(C(=O)N3CCCC(C)C3)c3c4ccccc4n(C)c3c2=O)cc1Cl (stereo not given) 3.28%
CCOC(=O)c1ccc(NC(=O)CSc2c3c(nc4cc(Cl)ccc24)CCCC3)cc1 -4.6%
CCN(CC)c1nc2ccccc2nc1C(=O)Nc1cc(OC)c(OC)c(OC)c1 -24.4%
Cc1nn2c(C)c(C(=O)NCc3ccco3)cnc2c1-c1ccccc1 -18.6%
Cc1nn(C(=O)c2ccc(Cl)cc2)c(C)c1S(=O)(=O)N1CCCCCC1 -8.44%
Cc1ccc(N2CCn3c2nc2c3c(=O)n(CCCc3ccccc3)c(=O)n2C)cc1C 2.17%
COc1ccc(OCC(=O)NCC(c2ccc(OC)cc2)N2CCCCC2)cc1 (stereo not given) -18.6%
COc1ccc(C2C(C(=O)Nc3cccnc3)=C(C)Nc3nc(-c4ccccc4)nn32)cc1OC (stereo not given) -6.88%
O=c1[nH]c(=O)n(C2CCCCC2)c(O)c1C1=Nc2ccccc2SC(c2ccccc2)C1 (stereo not given) 28.1%
COc1ccccc1NC(=O)C1=C(C)Nc2nc(SCc3ccccc3Cl)nn2C1c1ccccn1 (stereo not given) -8.57%
CN(C)c1ccc(/C=C/c2noc(-c3ccccc3O)n2)cc1 -16.3%
CSc1ccc(CCNS(=O)(=O)c2ccc3c(c2)C(C)(C)C(=O)N3C)cc1 -32.4%
Cc1ccc(C(c2cccc(Br)c2)c2c(C)[nH]c3ccccc23)s1 (stereo not given) -0.466%
COc1cc(OC)cc(C(=O)N2CCN(C(=O)COc3ccccc3)CC2)c1 3.95%
O=c1c2ccccc2n2c(-c3ccc(Cl)cc3)nnc2n1CCc1ccccc1 -8.58%
COc1ccc(-c2nc(CSc3nnc(C)n4c3cc3occc34)c(C)o2)cc1OC -13.2%
CCc1ccc(-n2nc(C)c3c(C)cc(=O)n(CC(=O)Nc4ccc(C(C)=O)cc4)c32)cc1 -16.2%
CC(C)C(NS(=O)(=O)c1ccc2c(c1)oc(=O)n2C)C(=O)NCCc1ccccc1 (stereo not given) -15.2%
O=C(Cn1ncc2c3ccccc3n(Cc3ccc(F)cc3)c2c1=O)NCCC1=CCCCC1 -5.7%
Cc1ccc(C)c(CN2C(=O)c3ccccc3S(=O)(=O)c3ccc(C(=O)NCCCN4CCCC(C)C4)cc32)c1 (stereo not given) -20.9%
CCC(CC)c1nn2c(=O)cc(COc3ccc(NC(=O)c4ccc(C)cc4)cc3)nc2s1 -0.745%
Cc1nn(C(=O)c2ccc(Cl)cc2)c(C)c1S(=O)(=O)N1CCOCC1 -6.08%
Cc1cn2c(=O)cc(COC(=O)c3cccc(NC(=O)c4ccccc4Cl)c3)nc2s1 -23.2%
CCc1ccc(CNC(=O)CN2C(=O)CSc3c2c(C)nn3-c2ccccc2)cc1 -22.7%
Cc1ccc(CNc2ncnc3c2nnn3C)cc1 7.59%
COc1ccc(CCNC(=O)c2ccc3c(c2)N(Cc2cc(C)ccc2C)C(=O)c2ccccc2S3=O)cc1OC (stereo not given) -23.5%
COc1ccc(-c2nc(SCC(=O)N3CCN(c4ccc(F)cc4)CC3)n[nH]2)cc1 -4.06%
CCCCOc1ccc(CNC(=O)Cc2ccc(NC(=O)N3CCCCc4ccccc43)cc2)cc1 -14.6%
CCn1c(=O)n(-c2ccc(F)cc2)c(=O)c2sc3ccccc3c21 -5.49%
CC(C)(C)OC(=O)N1CCC(c2c(C(=O)N3CCN(c4ccccc4)CC3)cnn2-c2ccccc2)CC1 -4.82%
CC(=O)N1CCC2(CC1)OC(=O)C(C)=C2C(=O)Nc1cc(C)ccc1C -1.34%
CCCN(C(=O)c1cc2ccc3cccnc3c2[nH]1)c1ccc(F)cc1 34%
O=C(c1ccccc1Cl)N(Cc1ccco1)c1ccccn1 -7.03%
Cc1cc(Br)ccc1NC(=O)Cn1cnc2sc(C)c(S(=O)(=O)N3CCN(C)CC3)c2c1=O 7.02%
COC(=O)c1sc2cccc(F)c2c1S(=O)(=O)Nc1ccc(N(C)C)cc1 0%
CC(=O)Nc1ccc(-n2c(CCC(=O)O)ccc2-c2ccc(Br)cc2)cc1 -8.84%
COc1ccc(Cl)cc1NC(=O)Cn1c(=O)n(Cc2cccs2)c(=O)c2cccnc21 -15.7%
COc1ccc(CNC(=O)Cc2c(C)c3c(cc(C)c4c(C)coc43)oc2=O)cc1OC 1.33%
CC1=C(C(=O)O)N2C(=O)[C@@H](NC(=O)C(N)c3ccccc3)[C@H]2SC1 (stereo not given in full) 2.11%
CCOC(=O)c1cc(-c2ccc(C)cc2)n(CC(=O)Nc2ccccc2F)c1C -15.2%
CCCC(=O)Nc1ccc(O)c(C(C)=O)c1 0.835%
COc1ccc(Br)c2c1-c1nc(NC(=O)c3ccccc3F)sc1C2 -13.4%
CCc1ccc(-c2[nH]nc3nc(-c4ccc(OC)cc4)cc(C(=O)NCCCOC)c23)cc1 12.4%
COC(=O)c1ccccc1NC(=O)c1ccc(COc2cc(C)cc(C)c2)o1 -12.6%
CCOc1ccc(NC(=O)CCn2c(=O)c3cccn3c3cccnc32)cc1 -0.905%
Cc1nn(-c2ccc(F)cc2)c(-n2cccc2)c1C(=O)N1CCN(c2ccccc2)CC1 -31.5%
Cc1cc2nn(-c3ccccc3)nc2cc1NC(=O)COc1ccc(Cl)cc1 70.7%
CCCN(CCC)C(=O)Cn1c(=O)n(-c2ccc(C)c(C)c2)c(=O)c2c3c(sc21)CCCCC3 -9.24%
Cc1ncc(CO)c2c1Oc1nc(-c3ccc(F)cc3)nc(SCC(=O)N3CCCCC3)c1C2 -18.9%
Cc1ccc(NC(=O)CSc2nnc(-c3cc4occc4n3C)n2-c2ccccc2C)c(Cl)c1 -26%
Cc1ccc(C)c(Cn2c3ccccc3c3cnn(CC(=O)NC4CCC(C)CC4)c(=O)c32)c1 (stereo not given) 0%
O=C(NCCc1ccccc1)C1CCN(c2ncnc3c2nc2n3CCCCC2)CC1 11%
COc1ccc(NC(=O)CSC2=Nc3ccccc3C3=NC(CCC(=O)NCc4cccs4)C(=O)N23)cc1 (stereo not given) -28.2%
CCCCOC(=O)/C(C#N)=C/c1ccc(-c2cccc(C(F)(F)F)c2)o1 -20.8% [at 11.5 µM]
CC1=C(C(=O)NCc2cccc(Br)c2)C2(CCCCC2)OC1=O -24.1%
CCOc1ccc(-c2nonc2NC(=O)c2ccco2)cc1 -19.7%
CCOc1ccc(NC(=O)CSc2nc3c(oc4ccccc43)c(=O)n2-c2cc(C)cc(C)c2)cc1 -4.33%
COc1cc(/C=C/c2nc(C#N)c(N3CCCCC3)o2)cc(OC)c1OC 2.41%
Cc1ccc(C(=O)Nc2c(-c3ccccc3)nc3ccccn23)cc1 -5.97%
Cc1ccc(C2c3[nH]c4ccccc4c3CCN2C(=O)c2ccccc2Br)cc1 (stereo not given) -38.5%
CCC(C(=O)OCc1cc(=O)n2nc(C)sc2n1)c1ccccc1 (stereo not given) -25.3%
Cc1cccc(-c2noc(CN(C3CCCCC3)S(=O)(=O)c3ccc(F)cc3)n2)c1 -15.3%
COc1ccc2c(c1)-c1nc(NC(=O)c3ccc(OC)c(Br)c3)sc1CC2 -26.6%
COc1ccc(OC)c(NC(=O)c2c(NCc3sccc3C)sc3c2CCCCC3)c1 -7.7%
COc1ccc(CNC(=O)CN(c2ccc(C(C)C)cc2)S(=O)(=O)c2c(C)nn(C)c2C)cc1 -21%
COc1ccc(NC(=O)CSc2nc3ccccc3nc2N2CCC(C)CC2)cc1 -17.5%
Cc1ccccc1NC(=O)Nc1nnc(N2CCCCCC2)s1 10.6%
COc1ccccc1NC(=O)CCn1nc(-c2ccccc2OC)c2c(C)cc(C)nc21 -26.6%
Cc1ccccc1OCC(=O)OCc1cc(=O)n2nc(C3CC3)sc2n1 -1.36%
CCC(=O)N1CCc2cc(Br)cc(S(=O)(=O)CCC(=O)N3CCN(c4ccc(F)cc4)CC3)c21 11.5%
Cc1cc(C)c(C)c(OCC(=O)Nc2ccc(S(=O)(=O)Nc3nc(C)cc(C)n3)cc2)c1 2.65%
COc1ccccc1OCC(O)COC(N)=O (stereo not given)
CCOC(=O)C1CCCN(C(=O)C2CCN(S(=O)(=O)c3c(C)noc3/C=C/c3ccccc3F)CC2)C1 (stereo not given) -18.5%
COc1ccc(CC(=O)NCCc2sc3nc(-c4ccc(OC)cc4)nn3c2C)cc1 -19.2%

Potency, active:
COc1ccc2sc(N(Cc3cccnc3)C(=O)c3ccc4c(c3)OCCO4)nc2c1 11.2 µM
